Assay results from the supplement of paper PMC8728848.
The other results are listed elsewhere or left out.

Key:
Assay in all cases: glycan array binding signal (z-score within array); higher = stronger binding
Conditions in all cases: glycan notation: IUPAC condensed, linker removed
[1] = target: Gal(b1-4)GlcNAc(b1-3)Gal(b1-4)Glc
Outline: (§1)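 From the Consortium for Functional Glycomics database, 3228 arrays were curated, keeping only those whose protein sequence was available. Binding is given as a within-array Z-score averaged across arrays sharing a protein sequence and across linkers. Negative Z-scores can be read as non-binding.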

[2] = target: Gal(b1-4)GlcNAc(b1-3)Gal(b1-4)GlcNAc
Outline: as §1

[3] = target: Gal(b1-4)GlcNAc(b1-3)Gal(b1-4)GlcNAc(b1-2)Man(a1-3)[Gal(b1-4)GlcNAc(b1-3)Gal(b1-4)GlcNAc(b1-2)Man(a1-6)]Man(b1-4)GlcNAc(b1-4)GlcNAc
Outline: as §1

[4] = target: Gal(b1-4)GlcNAc(b1-3)Gal(b1-4)GlcNAc(b1-2)Man(a1-3)[Gal(b1-4)GlcNAc(b1-3)Gal(b1-4)GlcNAc(b1-2)Man(a1-6)]Man(b1-4)GlcNAc(b1-4)[Fuc(a1-6)]GlcNAc
Outline: as §1

[5] = target: Gal(b1-4)GlcNAc(b1-3)Gal(b1-4)GlcNAc(b1-2)[Gal(b1-4)GlcNAc(b1-3)Gal(b1-4)GlcNAc(b1-6)]Man(a1-6)[Gal(b1-4)GlcNAc(b1-3)Gal(b1-4)GlcNAc(b1-2)Man(a1-3)]Man(b1-4)GlcNAc(b1-4)GlcNAc
Outline: as §1

[6] = target: Gal(b1-4)GlcNAc(b1-3)Gal(b1-4)GlcNAc(b1-2)[Gal(b1-4)GlcNAc(b1-3)Gal(b1-4)GlcNAc(b1-6)]Man(a1-6)[Gal(b1-4)GlcNAc(b1-3)Gal(b1-4)GlcNAc(b1-2)Man(a1-3)]Man(b1-4)GlcNAc(b1-4)[Fuc(a1-6)]GlcNAc
Outline: as §1

[7] = target: Gal(b1-4)GlcNAc(b1-3)Gal(b1-4)GlcNAc(b1-3)Gal(b1-4)GlcNAc
Outline: as §1

[8] = target: Gal(b1-4)GlcNAc(b1-3)Gal(b1-4)GlcNAc(b1-3)Gal(b1-4)GlcNAc(b1-2)Man(a1-3)[Gal(b1-4)GlcNAc(b1-3)Gal(b1-4)GlcNAc(b1-3)Gal(b1-4)GlcNAc(b1-2)Man(a1-6)]Man(b1-4)GlcNAc(b1-4)GlcNAc
Outline: as §1

[9] = target: Gal(b1-4)GlcNAc(b1-3)Gal(b1-4)GlcNAc(b1-3)Gal(b1-4)GlcNAc(b1-2)Man(a1-3)[Gal(b1-4)GlcNAc(b1-3)Gal(b1-4)GlcNAc(b1-3)Gal(b1-4)GlcNAc(b1-2)Man(a1-6)]Man(b1-4)GlcNAc(b1-4)[Fuc(a1-6)]GlcNAc
Outline: as §1

[10] = target: Gal(b1-4)GlcNAc(b1-3)Gal(b1-4)GlcNAc(b1-3)Gal(b1-4)GlcNAc(b1-2)[Gal(b1-4)GlcNAc(b1-3)Gal(b1-4)GlcNAc(b1-3)Gal(b1-4)GlcNAc(b1-6)]Man(a1-6)[Gal(b1-4)GlcNAc(b1-3)Gal(b1-4)GlcNAc(b1-3)Gal(b1-4)GlcNAc(b1-2)Man(a1-3)]Man(b1-4)GlcNAc(b1-4)[Fuc(a1-6)]GlcNAc
Outline: as §1

[11] = target: Gal(b1-4)GlcNAc(b1-3)Gal(b1-4)GlcNAc(b1-3)Gal(b1-4)GlcNAc(b1-3)Gal(b1-4)GlcNAc(b1-2)Man(a1-3)[Gal(b1-4)GlcNAc(b1-3)Gal(b1-4)GlcNAc(b1-3)Gal(b1-4)GlcNAc(b1-3)Gal(b1-4)GlcNAc(b1-2)Man(a1-6)]Man(b1-4)GlcNAc(b1-4)GlcNAc
Outline: as §1

[12] = target: Gal(b1-4)GlcNAc(b1-3)Gal(b1-4)GlcNAc(b1-3)Gal(b1-4)GlcNAc(b1-3)Gal(b1-4)GlcNAc(b1-2)Man(a1-3)[Gal(b1-4)GlcNAc(b1-3)Gal(b1-4)GlcNAc(b1-3)Gal(b1-4)GlcNAc(b1-3)Gal(b1-4)GlcNAc(b1-2)Man(a1-6)]Man(b1-4)GlcNAc(b1-4)[Fuc(a1-6)]GlcNAc
Outline: as §1

[13] = target: Gal(b1-4)GlcNAc(b1-3)Gal(b1-4)GlcNAc(b1-3)Gal(b1-4)GlcNAc(b1-3)Gal(b1-4)GlcNAc(b1-2)[Gal(b1-4)GlcNAc(b1-3)Gal(b1-4)GlcNAc(b1-3)Gal(b1-4)GlcNAc(b1-3)Gal(b1-4)GlcNAc(b1-6)]Man(a1-6)[Gal(b1-4)GlcNAc(b1-3)Gal(b1-4)GlcNAc(b1-3)Gal(b1-4)GlcNAc(b1-3)Gal(b1-4)GlcNAc(b1-2)Man(a1-3)]Man(b1-4)GlcNAc(b1-4)[Fuc(a1-6)]GlcNAc
Outline: as §1

[14] = target: Gal(b1-4)GlcNAc(b1-3)Gal(b1-4)GlcNAc(b1-3)Gal(b1-4)GlcNAc(b1-3)Gal(b1-4)GlcNAc(b1-3)Gal(b1-4)GlcNAc(b1-2)Man(a1-3)[Gal(b1-4)GlcNAc(b1-3)Gal(b1-4)GlcNAc(b1-3)Gal(b1-4)GlcNAc(b1-3)Gal(b1-4)GlcNAc(b1-3)Gal(b1-4)GlcNAc(b1-2)Man(a1-6)]Man(b1-4)GlcNAc(b1-4)GlcNAc
Outline: as §1

[15] = target: Gal(b1-4)GlcNAc(b1-3)Gal(b1-4)GlcNAc(b1-3)Gal(b1-4)GlcNAc(b1-3)Gal(b1-4)GlcNAc(b1-3)Gal(b1-4)GlcNAc(b1-2)Man(a1-3)[Gal(b1-4)GlcNAc(b1-3)Gal(b1-4)GlcNAc(b1-3)Gal(b1-4)GlcNAc(b1-3)Gal(b1-4)GlcNAc(b1-3)Gal(b1-4)GlcNAc(b1-2)Man(a1-6)]Man(b1-4)GlcNAc(b1-4)[Fuc(a1-6)]GlcNAc
Outline: as §1

[16] = target: Gal(b1-4)GlcNAc(b1-3)Gal(b1-4)GlcNAc(b1-3)Gal(b1-4)GlcNAc(b1-3)Gal(b1-4)GlcNAc(b1-3)Gal(b1-4)GlcNAc(b1-2)[Gal(b1-4)GlcNAc(b1-3)Gal(b1-4)GlcNAc(b1-3)Gal(b1-4)GlcNAc(b1-3)Gal(b1-4)GlcNAc(b1-3)Gal(b1-4)GlcNAc(b1-6)]Man(a1-6)[Gal(b1-4)GlcNAc(b1-3)Gal(b1-4)GlcNAc(b1-3)Gal(b1-4)GlcNAc(b1-3)Gal(b1-4)GlcNAc(b1-3)Gal(b1-4)GlcNAc(b1-2)Man(a1-3)]Man(b1-4)GlcNAc(b1-4)[Fuc(a1-6)]GlcNAc
Outline: as §1

[17] = target: Gal(b1-4)GlcNAc(b1-3)Gal(b1-4)GlcNAc(b1-3)Gal(b1-4)GlcNAc(b1-3)Gal(b1-4)GlcNAc(b1-3)Gal(b1-4)GlcNAc(b1-3)Gal(b1-4)GlcNAc(b1-2)Man(a1-3)[Gal(b1-4)GlcNAc(b1-3)Gal(b1-4)GlcNAc(b1-3)Gal(b1-4)GlcNAc(b1-3)Gal(b1-4)GlcNAc(b1-3)Gal(b1-4)GlcNAc(b1-3)Gal(b1-4)GlcNAc(b1-2)Man(a1-6)]Man(b1-4)GlcNAc(b1-4)GlcNAc
Outline: as §1

[18] = target: Gal(b1-4)GlcNAc(b1-3)Gal(b1-4)GlcNAc(b1-3)GalNAc
Outline: as §1

[19] = target: Gal(b1-4)GlcNAc(b1-3)Gal(b1-4)GlcNAc(b1-3)[Gal(b1-4)GlcNAc(b1-3)Gal(b1-4)GlcNAc(b1-6)]GalNAc
Outline: as §1

B1: PX15618B-bfa-464-25-464 (Bacteroides fragilis) (protein)
chain: DQEPPLYVNENDIFTSPTRIEATLNGLYAAIKNTGTKSLMGGKSYLVFDNRGDDVINISNNLVTLFNTYNMNVGITDAENADTWTYAYLAINKVNTFLQSLEGAREVAGENYDRYVQEAKFVRALAYYYLNNLYPTPYSVNPDAKSVPLRLTAEAGTENNNMPRSTVKQIYEHILSDLENISALDTEVNTYTGVTHATQAAANMLKMRVYMAMNEWDKAITAGELVTGYSLPEDVTLIYKAPYFSQESIFSLPMADTNIPNTQQSLAEYYYDGKIMLIDTKSGIMSKPDYSLATDKRIIAFKGEKDLLMKFTDAKTKLQWVPIFRYAETLLDLAECYANKAGGEATAKSLLKQVRGRSVDAATDPLNIDNLSGDALKEAIYNEKRLEFIGEGIRGIDIMRRGEHFIKVGENETINVGPSDEKYTWPIPQVELLLNKDINK
glycan array binding signal (z-score) [1]: -0.611
glycan array binding signal (z-score) [2]: 0.342
glycan array binding signal (z-score) [3]: 0.341
glycan array binding signal (z-score) [4]: -0.332
glycan array binding signal (z-score) [5]: 0.039
glycan array binding signal (z-score) [6]: 1.2
glycan array binding signal (z-score) [7]: -0.187
glycan array binding signal (z-score) [8]: 0.659
glycan array binding signal (z-score) [9]: -0.112
glycan array binding signal (z-score) [10]: 0.138
glycan array binding signal (z-score) [11]: 0.837
glycan array binding signal (z-score) [12]: 0.871
glycan array binding signal (z-score) [13]: 0.086
glycan array binding signal (z-score) [14]: 0.222
glycan array binding signal (z-score) [15]: 0.468
glycan array binding signal (z-score) [16]: 19.3
glycan array binding signal (z-score) [17]: 0.717
glycan array binding signal (z-score) [18]: -0.382
glycan array binding signal (z-score) [19]: 0.24
